Test results published in paper PMC7000700, “RyR1-targeted drug discovery pipeline integrating FRET-based high-throughput screening and human myofiber dynamic Ca^2+ assays” (Scientific Reports, 2020).

Test system: RyR1 Ca^2+ leak in human skinned skeletal muscle fibers
Assay: t-system Ca2+ readout of RyR1 Ca2+ leak in human mechanically skinned skeletal muscle fibers
Settings: after 10 μM myricetin or 100 μM chloroxine

## Oc1c(Cl)cc(Cl)c2cccnc12 [chloroxine]
  Reversibility of effect (recovery of t-system fluorescence after washout): can be washed-out

## O=c1c(O)c(-c2cc(O)c(O)c(O)c2)oc2cc(O)cc(O)c12 [myricetin]
  Reversibility of effect (recovery of t-system fluorescence after washout): can be washed-out
